# The campaign covered roughly 230,000 compounds. About 3,600 (1.6%) were called active. The shares of active, inactive and inconclusive entries below differ from those in the screen. The call rests on the fitted dose curve; in most records, active means well fitted inhibition curve with a large enough effect (not every such curve was filed as active); inconclusive means small, poorly fitted or top-dose-only effect, or another doubt; inactive means no such curve, though single readings can be large or run the other way. Potencies of inconclusive entries are doubtful fits and often do not repeat.
# Molecular target: Lysine-specific demethylase 4E (Homo sapiens) (UniProt B2RXH2)
# Sequence of UniProt B2RXH2 (B2RXH2 whole entry, looked up, the tested form may be a part): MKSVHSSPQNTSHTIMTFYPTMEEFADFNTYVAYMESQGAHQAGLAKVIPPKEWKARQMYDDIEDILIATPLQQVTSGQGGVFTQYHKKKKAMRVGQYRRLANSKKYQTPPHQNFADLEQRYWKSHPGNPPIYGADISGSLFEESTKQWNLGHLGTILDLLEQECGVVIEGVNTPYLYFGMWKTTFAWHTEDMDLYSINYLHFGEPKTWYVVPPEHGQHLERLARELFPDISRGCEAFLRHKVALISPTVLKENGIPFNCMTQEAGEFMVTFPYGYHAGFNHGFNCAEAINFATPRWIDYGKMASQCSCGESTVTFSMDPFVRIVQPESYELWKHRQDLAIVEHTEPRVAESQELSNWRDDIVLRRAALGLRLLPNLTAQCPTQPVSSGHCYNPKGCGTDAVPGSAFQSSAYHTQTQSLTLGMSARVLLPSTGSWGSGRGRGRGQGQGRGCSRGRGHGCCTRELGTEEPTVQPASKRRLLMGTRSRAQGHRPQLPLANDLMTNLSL
# Test: qHTS Assay for Inhibitors of Human Jumonji Domain Containing 2E (JMJD2E)
# Settings: JMJD2E catalytic domain, FDH-coupled NADH fluorescence (FDH is formaldehyde dehydrogenase); series mostly up to 57.1 µM
# Further: nearly all actives have a fitted effect of over 50% in size.
# Potency means the concentration at half of the fitted maximal effect; tags describe the fitted curve by direction and shape.
row,SMILES,Potency
1,CC(C)(C)c1nn(-c2ccccc2)c2[nH]c(=O)c(CNCc3ccco3)cc12,"inconclusive: 35.5 µM [inhibitor, partial curve]"
2,COc1ccc(/C=N/Nc2cc(C)nc(-n3nc(C)cc3C)n2)c(OC)c1,"inconclusive: 35.5 µM [inhibitor, single point]"
3,N#Cc1c(N2CCN(C(=O)c3ccco3)CC2)nc(-c2ccccc2)c2c1CCCC2,"inconclusive: 31.6 µM [inhibitor, partial curve]"
4,CCOC(=O)C1(CCOc2ccccc2)CCN(Cc2ccc(CO)o2)CC1,inactive
5,CC1CCN(C(=O)c2cc3nc(-c4ccccc4)cc(-c4ccccc4)n3n2)CC1,"inconclusive: 35.5 µM [inhibitor, partial curve]"
6,CCCNC(=O)N1CCN(c2nc(C(C)C)c3c(c2C#N)CC(C)(C)OC3)CC1,"inconclusive: 35.5 µM [inhibitor, partial curve]"
7,CNc1nc(C)cc(C)c1S(=O)(=O)c1ccc(C)cc1,"inconclusive: 39.8 µM [inhibitor, single point]"
8,C=CCSc1nnc(CSc2nc3sc4c(c3c(=O)[nH]2)CCCC4)n1-c1ccccc1,"inconclusive: 31.6 µM [inhibitor, partial curve]"
9,Cc1cc(=O)oc2cc(OCC(=O)OCC(=O)NC(=O)NC(C)C)ccc12,"inconclusive: 2 µM [inhibitor, full curve]"
10,Cc1ccc(S(=O)(=O)NCc2ccc3[nH]c(C)cc3c2)cc1,inactive
11,Cc1ccccc1-c1coc2cc(O)ccc2c1=O,"inconclusive: 28.2 µM [inhibitor, partial curve]"
12,Cn1cc(Br)c(C(=O)NNC(=O)Nc2ccccc2C(F)(F)F)n1,inactive
13,C=C1C[C@@]23C[C@]1(O)CC[C@@H]2[C@]12C=C[C@@H](O)[C@](C)(C(=O)O1)[C@H]2[C@H]3C(=O)O,inactive
14,Cc1ccc(Nc2nc(-c3ccc(O)cc3O)cs2)nc1,"inconclusive: 17.8 µM [inhibitor, partial curve]"
15,O=C(COC(=O)c1cc2c(s1)CCC2)Nc1ccc(F)cc1,"inconclusive: 28.2 µM [inhibitor, partial curve]"
16,CC(C)Sc1nc2ccc(Br)cc2[nH]1,inactive
17,CCOc1ccc(NC(=O)c2cc3c(=O)n(C)c4ccccc4c3n2C)cc1,"inconclusive: 5.01 µM [inhibitor, single point]"
18,O=C(CSc1nc(-c2ccco2)cc(C(F)(F)F)n1)NCCCn1ccnc1,"inconclusive: 39.8 µM [inhibitor, single point]"
19,CSc1ccc(C(=O)C2CCCN(S(=O)(=O)N(C)C)C2)cc1 (centres undefined),"inconclusive: 3.98 µM [inhibitor, partial curve, poor fit]"
20,Cc1c(C(=O)Nc2ccc(Oc3ccccc3)cc2)sc2nc3n(c(=O)c12)CCC3,"inconclusive: 39.8 µM [inhibitor, single point]"
21,CCOC(=O)N1CCC2(CC1)C(C#N)=C(N)Oc1c2c(C)nn1-c1cccc(Cl)c1,"inconclusive: 39.8 µM [inhibitor, single point]"
22,O=C(COc1ccccc1)Nc1cccc(-c2nc3ccccc3[nH]2)c1,"inconclusive: 31.6 µM [inhibitor, single point]"
23,Cc1cc(/C=N/NC(=O)c2cccs2)c(C)n1-c1ccccc1,"inconclusive: 39.8 µM [inhibitor, single point]"

row,SMILES,Potency
1,S=C(Nc1ccc(Cl)cc1Cl)NC1CCN(Cc2ccccc2)CC1,inactive
2,CCC(C)(C)n1nnnc1C(c1cc2cc3c(cc2[nH]c1=O)OCO3)N1CCCCC1 (centres undefined),"inconclusive: 10 µM [inhibitor, partial curve]"
3,COc1ccc(-c2c(C(F)(F)F)[nH]n3c(=O)cc(-c4ccccc4)nc23)cc1,"inconclusive: 28.2 µM [inhibitor, partial curve]"
4,CNS(=O)(=O)c1ccc(N=Cc2c(C)[nH]n(-c3ccc(C)cc3C)c2=O)cc1,"inconclusive: 11.2 µM [inhibitor, partial curve]"
5,Cc1cc2nnc(SCC(=O)OC(C)C)n2c2ccccc12,"inconclusive: 25.1 µM [inhibitor, partial curve]"
6,O=C(NCc1ccco1)Nc1cccs1,inactive
7,COCCCn1c(=NC(=O)c2ccccc2)c(C#N)cc2c(=O)n3cccc(C)c3nc21,"inconclusive: 28.2 µM [inhibitor, partial curve]"
8,Cc1ccc(-c2nnc3c4ccccc4c(C)nn23)cc1S(=O)(=O)N1CCN(CCO)CC1,"inconclusive: 39.8 µM [inhibitor, single point]"
9,COCCNCC#CCOc1ccc(OC)cc1,"inconclusive: 25.1 µM [inhibitor, single point]"
10,COc1cccc(NC(=O)CSc2c3c(nc4ccccc24)CCCC3)c1,"inconclusive: 39.8 µM [inhibitor, single point]"
11,C[C@]12CCC3c4ccc(OCC(=O)O)cc4CCC3C1CCC2=O (some centres undefined),"inconclusive: 39.8 µM [inhibitor, single point]"
12,CCCn1nc(C(=O)Nc2nc3ccccc3[nH]2)c2ccccc2c1=O,inactive
13,Cc1ccc(S/C=C\C(=O)c2ccccc2)cc1,inactive
14,COc1ccc(OCC(=O)N/N=C/C=C/c2ccccc2)cc1,inactive
15,COC(=O)C1=C(C)Nc2c(c(=O)n(C)c(=O)n2C)C1c1ccncc1 (centres undefined),"inconclusive: 39.8 µM [inhibitor, single point]"
16,C=CCN1CN=C(NS(=O)(=O)c2ccc(NC(C)=O)cc2)NC1,inactive
17,CCCSc1nc2c(c(=O)n1-c1ccc(OCC)cc1)SCC2,inactive
18,CCC1OC2(C)OC(=N)C1(C#N)C(C#N)(C#N)C2c1ccccc1 (centres undefined),"inconclusive: 28.2 µM [inhibitor, partial curve]"
19,Cc1nc(N2CCN(c3ccccn3)CC2)c2c(C)c(C(=O)Nc3ccc(F)cc3F)sc2n1,"inconclusive: 35.5 µM [inhibitor, single point]"
20,COc1cc(-c2nc(-c3ccc(NC(=O)c4ccc5c(c4)OCO5)cc3)no2)cc(OC)c1OC,"inconclusive: 10 µM [inhibitor, partial curve]"
21,CS(=O)(=O)N(CC(=O)NCCC1=CCCCC1)C1CCCCC1,inactive
22,CC(C)(C)C1c2[nH]c3ccccc3c2CCN1CCCn1cccn1 (centres undefined),"inconclusive: 35.5 µM [inhibitor, single point]"
23,Cc1[nH]c2ccccc2c1NC(=O)CN1CCN(c2cccc(C(F)(F)F)c2)CC1,"inconclusive: 25.1 µM [inhibitor, single point]"

row,SMILES,Potency
1,CC(=O)c1ccc(N2CCN(c3ccc(C(N)=O)cc3[N+](=O)[O-])CC2)cc1,inactive
2,CCN(CC)S(=O)(=O)c1ccc(NC2c3ncccc3C(=O)N2Cc2ccccc2)cc1 (centres undefined),"inconclusive: 14.1 µM [inhibitor, partial curve]"
3,COC(=O)c1ccc(CSc2nc3sc(C(=O)O)c(C)c3c(=O)[nH]2)cc1,inactive
4,CCOc1ccccc1/C=N/Nc1nc2c(N)ncnc2n1[C@H]1O[C@@H](CO)[C@H](O)[C@@H]1O,inactive
5,CSc1nc(SCCO)c2sc3nc(-c4ccco4)c4c(c3c2n1)CC(C)(C)OC4,"inconclusive: 22.4 µM [inhibitor, partial curve]"
6,O=C(c1ccc(C#CC2(O)CCCCC2)cc1)N1CCOCC1,inactive
7,COC(=O)c1ccc(-c2ccc([C@H]3[C@H]4C=CC[C@@H](C)[C@@H]4C(=O)N3Cc3ccccc3)c(F)c2)cc1,"inconclusive: 35.5 µM [inhibitor, single point]"
8,CCOC(=O)c1cc2c(=O)n3ccccc3nc2n(CC2CCCO2)c1=NC(=O)/C=C/c1ccccc1 (centres undefined),"inconclusive: 28.2 µM [inhibitor, partial curve]"
9,CCCCSc1nnc([C@H](C)NC(=O)OC(C)(C)C)o1,inactive
10,CC(C)CSC1=NSC2=NC(=O)/C(=C\c3coc4ccccc4c3=O)C(=N)N12,"inconclusive: 31.6 µM [inhibitor, partial curve]"
11,O=C(O)c1c[nH]c(=O)c2ccccc12,"inconclusive: 35.5 µM [inhibitor, single point]"
12,COc1ccc(-c2c[n+](CC(=O)c3cccs3)c3n2CCC3)cc1,inactive
13,Fc1cc(Br)ccc1Nc1nc2ccccc2n2nnnc12,"inconclusive: 35.5 µM [inhibitor, single point]"
14,CC(=O)Nc1ccc(S(=O)(=O)N2CCN(c3cc(C(F)(F)F)ccn3)CC2)cc1,"inconclusive: 20 µM [inhibitor, partial curve]"
15,COC(=O)c1ccc(Oc2c(F)c(F)nc(N3CCOCC3)c2F)cc1,"inconclusive: 28.2 µM [inhibitor, single point]"
16,COC(=O)Cc1cc(=O)n2[nH]cnc2n1,"inconclusive: 39.8 µM [inhibitor, single point]"
17,N#C/C(=C\c1c(Cl)cccc1Cl)c1nc2ccccc2[nH]1,"inconclusive: 25.1 µM [inhibitor, partial curve]"
18,Nc1nc2c3ccccc3nc(Cc3ccccc3)n2n1,"inconclusive: 25.1 µM [inhibitor, partial curve]"
19,Cc1ccc(-c2cc3c(N=O)c4ccccc4c-3n[nH]2)cc1,"inconclusive: 8.91 µM [inhibitor, single point]"
20,c1ccc(-c2cc3c(NCC4COc5ccccc5O4)ncnc3s2)cc1 (centres undefined),"inconclusive: 31.6 µM [inhibitor, partial curve]"
21,CSc1nsc(SC)c1NC(=O)N1CCCCC1,inactive
22,CC(=NCC1CCNCC1)C1=C(O)CC(C)(C)CC1=O,inactive
23,O=C1/C(=C/c2cccnc2)SC(=NCc2ccccc2)N1Cc1ccccc1,inactive

# From PubChem BioAssay AID2147 (National Center for Advancing Translational Sciences (NCATS), 2009)
